The other results are listed elsewhere or left out. The main result of the screen is listed elsewhere. These columns were measured beside it and carry no call.

The results in this text go back to PubChem BioAssay AID1986 (Sanford-Burnham Center for Chemical Genomics, 2009).

The nature of the assay: inhibitors of HIV fusion peptide binding, primary screen, biochemical, uHTS, fluorescence dequenching (AID 1986). To be noted: cell-free peptide binding, 30 min, measured here: repeat confirmation average inhibition, at 18.6 µM, stronger effect = higher value.
As usually defined, the inhibition is the drop in the measured response relative to a control, in per cent. Take `O=C(O)c1[nH]c2ccccc2c1C(c1c(F)cccc1Cl)c1c(C(=O)O)[nH]c2ccccc12`: the inhibition came to 56.9%.
`CCc1ccc(S(=O)(=O)/N=C2\C=C(NS(=O)(=O)c3ccccc3)C(=O)c3ccccc32)cc1`: the inhibition was found to be 71.8%.
As for `Cc1ccc(C)c(S(=O)(=O)/N=C2\C=C(NS(=O)(=O)c3ccccc3)C(=O)c3ccccc32)c1`, the figure is 69.1%.
`O=C(O)COc1ccc(/C=N/NC(=O)c2ccc(-c3csc(Nc4ccc(Cl)cc4)n3)cc2)cc1`: the inhibition worked out at 52.2%.
In the case of `CN1C(=O)/C(=C/c2ccc(C(=O)Nc3ccc(O)cc3C(=O)O)cc2)SC1=S`, the inhibition turned out to be 71.5%.
To `Cc1ccc(/C=C2\SC(=S)N(CCCC(=O)Nc3ccccc3C(=O)O)C2=O)cc1` belongs 53.4%.
For `CCOC(=O)C1=C(C)N=c2s/c(=C/c3ccc(OCC(=O)O)cc3)c(=O)n2C1c1ccc(SC)cc1` (stereo not drawn), the inhibition was found to be 65.1%.
Regarding `CC(=O)Nc1sc(/C(C#N)=C/c2ccc(Cl)c(Cl)c2)nc1-c1ccc(C)cc1`, the inhibition was 176%.
As for `COc1cc(OC)c2c(O)c3c(c(-c4c5c(c(O)c6c(OC)cc(OC)cc46)CO[C@@H](C)[C@H]5O)c2c1)[C@H](O)[C@H](C)OC3`, the inhibition was 83.6%.
As to `Oc1c(Cl)cc(Cl)c(Cl)c1Cc1c(O)c(Cl)cc(Cl)c1Cl`, the inhibition is 71.1%.
To `Cc1cc(N2C(=O)C(O)=C(C(=O)c3ccc(C)o3)C2c2cccc(Oc3ccccc3)c2)no1` (stereo not drawn) belongs 51.4%; to `COc1cc([N+](=O)[O-])cc(/C=N/NC(=O)c2cc(-c3ccccc3)nc3ccccc23)c1O`, 54.4%.
With `CC1=C(C(=O)Nc2ccccc2)C(c2ccc(Cl)cc2)n2c(s/c(=C/c3cccc(OCC(=O)O)c3)c2=O)=N1` (stereo not drawn), the inhibition amounted to 60.5%.
Take `Cc1ccc(-n2c(O)c(C=Nc3ccccc3-c3n[nH]c(=S)[nH]c3=O)c3ccccc3c2=O)c(C)c1`: the inhibition turned out to be 56.3%.
Consider `O=C(O)c1cc(-c2ccc(/C=N/Nc3ccc(Cl)cc3)o2)ccc1Cl`, for which the inhibition is 54.7%.
To `CS(=O)(=O)C1=NSC2=NC(=O)/C(=C\c3cccn3-c3ccc(Cl)cc3)C(=N)N21` belongs 69.9%; to `CCOC(=O)C1=C(C)N=c2s/c(=C\c3ccc(OCC(=O)O)cc3)c(=O)n2C1c1ccc(Cl)cc1` (stereo not drawn), 63.5%.
In the case of `COc1ccc(-c2coc3c(C)c4oc(=O)c(CCC(=O)O)c(C)c4cc23)cc1`, the inhibition came out at 51.8%.
To `COc1cc(/C=C2/SC(=S)N(Cc3ccccc3)C2=O)ccc1OCC(=O)O` belongs 76.1%; to `CC1=C(C(=O)OC(C)C)C(c2ccc(Cl)cc2)n2c(s/c(=C\c3ccc(OCC(=O)O)cc3)c2=O)=N1` (stereo not drawn), 54.6%.
For `COc1cc(/C=C2\SC(=O)N(CC(=O)Nc3cccc(C)c3)C2=O)cc([N+](=O)[O-])c1O`, the inhibition is 69.9%.
As to `Cc1cc(/C=C2/C(=N)N3C(=NC2=O)SN=C3S(C)(=O)=O)c(C)n1-c1ccccc1`, the inhibition came out at 50.4%.
Regarding `O=C(N/N=C/c1ccc(-c2ccc(S(=O)(=O)Nc3ncccn3)cc2)o1)c1cc2ccccc2cc1O`, the inhibition was determined as 79.8%.
To `Cc1ccc(NS(=O)(=O)c2ccc(N/N=C/c3ccccc3OCC(=O)O)c([N+](=O)[O-])c2)c(C)c1` belongs 81.5%; to `Cc1ccc(-n2cccc2/C=C2/C(=N)N3C(=NC2=O)SN=C3S(C)(=O)=O)cc1Cl`, 90.3%; to `COc1cc(/C=C2/SC(=S)NC2=O)ccc1OS(=O)(=O)c1ccc(C)cc1`, 75%.
Regarding `O=C(Nc1ccccc1Cc1ccccc1)c1ccccc1NS(=O)(=O)c1ccc(Cl)s1`, the inhibition is 70.6%.
On to `O=C(O)COc1ccccc1/C=N/Nc1ccc(S(=O)(=O)Nc2ccc(Cl)cc2)cc1[N+](=O)[O-]`, for which the inhibition was 81%.
Regarding `C/C(=N\Nc1ccc(C(=O)O)cc1)c1ccc2c(c1)Nc1ccccc1S2`, the inhibition is 73.7%.
For the compound `CSc1nnc(-c2ccccc2N=Cc2c(C)[nH]n(-c3ccc4ccccc4c3)c2=O)c(=O)[nH]1`, the inhibition was found to be 54.2%.
In the case of `O=C(O)CSCC(=O)N(Cc1ccccc1)c1nc(-c2ccccc2)c(-c2ccccc2)s1`, the inhibition was 82.8%.
Regarding `CCc1ccc(N=C2NC(=O)/C(=C/c3cc(Br)c(OCC(=O)O)c(OC)c3)S2)cc1`, the inhibition was found to be 69.3%.
Consider `O=C(O)CN1C(=O)/C(=C\c2cn(-c3ccccc3)nc2-c2ccccc2)SC1=S`, for which the inhibition was 55.7%.
Take `COCCN1C(=O)/C(=C/c2ccc(OCc3ccc(C(=O)O)cc3)c(OC)c2)SC1=Nc1ccccc1`: the inhibition amounted to 66.3%.
With `CC(C)(C)c1cc(-c2csc(Nc3ccccc3)[n+]2Cc2ccc(C(=O)O)cc2)cc(C(C)(C)C)c1O`, the inhibition came out at 84.1%.
Consider `O=C(N/N=C/c1cc(Cl)cc([N+](=O)[O-])c1O)NC12CC3CC(CC(C3)C1)C2`, for which the inhibition amounted to 56.8%.
Take `O=C(O)c1cc(N2N=C(C(F)(F)F)/C(=C/C=C/c3ccco3)C2=O)ccc1Cl`: the inhibition came out at 66.9%.
Consider `CC(C)CS(=O)(=O)C1=NSC2=NC(=O)/C(=C\c3ccc(OC(=O)c4ccco4)cc3)C(=N)N21`, for which the inhibition came out at 70.8%.
To `Cc1ccc(NC(=O)COc2cccc(/C=C3\SC(=S)N(CCC(=O)O)C3=O)c2)cc1Cl` belongs 76.3%.
In the case of `CCCOc1ccc(C(=O)NNC(=S)NC(=O)c2cc(-c3ccc(Cl)cc3)nc3ccccc23)cc1`, the inhibition amounted to 68.6%.
For the compound `COc1ccc(O)c(C(=O)c2cc(SCC(=O)O)c3nc4sc5c(c4c(=O)n3c2)CCCC5)c1`, the inhibition is 70.7%.
Regarding `CC(C)(C)c1ccc(S(=O)(=O)/N=C2\C=C(NS(=O)(=O)c3ccccc3)C(=O)c3ccccc32)cc1`, the inhibition was 60.4%.
For the compound `O=C1N/C(=N\S(=O)(=O)c2ccccc2)S/C1=C\c1cc([N+](=O)[O-])ccc1O`, the inhibition was found to be 82.9%.
On to `COc1cc(/C=C2\SC(=Nc3ccccc3)N(CCc3c[nH]c4ccccc34)C2=O)ccc1OC(C)C(=O)O` (stereo not drawn), for which the inhibition amounted to 80.9%.
On to `COc1ccc(C(=O)/C=C/c2cccc(OCc3ccccc3)c2)cc1CSCC(=O)O`, for which the inhibition was 54.9%.
Regarding `Cc1ccc(S(=O)(=O)/N=C2/NC(=O)/C(=C/c3cc([N+](=O)[O-])ccc3O)S2)cc1`, the inhibition is 93.6%.
`COc1cccc(-c2coc3c(C)c4oc(=O)c(CCC(=O)O)c(C)c4cc23)c1`: the inhibition was 60.2%.
To `Cc1ccc(Cl)cc1N1CCN(C(=O)Cc2c(C(=O)O)[nH]c3ccc(Cl)cc23)CC1` belongs 60.9%; to `O=C(O)CSc1cc(C(=O)c2ccccc2O)cn2c(=O)c3c4c(sc3nc12)CCCC4`, 61.4%; to `O=C(O)c1ccc(Cl)c(S(=O)(=O)Nc2ccccc2C(=O)Nc2ccc(Cl)cc2)c1`, 54.5%.
Turning to `CC(Oc1ccc(Cl)cc1Cl)C(=O)Nc1ccc(S(=O)(=O)Nc2cnc3ccccc3n2)cc1` (stereo not drawn), the inhibition was determined as 67.4%.
For the compound `CCn1nc([N+](=O)[O-])c(C(C#N)c2nc3cc(C(F)(F)F)ccc3s2)c(Cl)c1=O` (stereo not drawn), the inhibition is 79.6%.
For `COc1cccc(OCCOc2ccc(/C=C3\C(=N)N4N=C(S(C)(=O)=O)SC4=NC3=O)cc2OC)c1`, the inhibition was 79.2%.
Turning to `CCOc1cc(/C=C2\SC(=O)N(CC(=O)Nc3ccccc3F)C2=O)cc([N+](=O)[O-])c1O`, the inhibition amounted to 67.8%.
To `COC(=O)c1sc(-c2ccc(C(C)(C)C)cc2)cc1NC(=O)c1ccccc1C(=O)O` belongs 64.3%; to `CCN1C(=O)/C(=C\c2ccc(-c3ccc([N+](=O)[O-])cc3OC)o2)SC1=Nc1cccc(C(=O)O)c1`, 71.7%.
In the case of `Cc1cc(/C=C2\C(=N)N3N=C(S(C)(=O)=O)SC3=NC2=O)c(C)n1Cc1ccccc1`, the inhibition came to 53.4%.
For the compound `COc1ccc(N=C2S/C(=C\c3ccc(OC(C)C(=O)O)c(OC)c3)C(=O)N2CCc2c[nH]c3ccccc23)cc1` (stereo not drawn), the inhibition is 71.5%.
As for `O=C(O)CCN1C(=O)/C(=C\c2cccc(OCC(=O)Nc3ccc(Cl)cc3)c2)SC1=S`, the figure is 63.2%; as for `O=C1NC(=Nc2ccccc2Cl)S/C1=C\c1cccc([N+](=O)[O-])c1O`, 64.5%; as for `O=C(O)COc1ccc(/C=C/C(=O)c2ccc(C3CCCCC3)cc2)cc1`, 58.9%.
Consider `CCS(=O)(=O)C1=NN2C(=N)/C(=C\c3ccc(OCCOc4cccc(OC)c4)c(OC)c3)C(=O)N=C2S1`, for which the inhibition stood at 68.3%.
As for `Cc1ccc(-c2nn(-c3ccccc3)cc2/C=C2\SC(=S)N(CC(=O)O)C2=O)cc1`, the inhibition is 72.1%.
Consider `COc1cccc(NS(=O)(=O)c2ccc3c(c2)C2C=CCC2C(c2ccc(C(=O)O)cc2)N3)c1` (stereo not drawn), for which the inhibition came to 68.7%.
To `O=C(O)CCN1C(=O)/C(=C\c2ccc(OCc3ccccc3)c(OCc3ccccc3)c2)SC1=S` belongs 92.7%; to `N#Cc1c(-c2ccccc2)nc(SCC(=O)Nc2ccc(OC(F)(F)Cl)cc2)[nH]c1=O`, 73.8%; to `Cc1c(CCC(=O)O)c(=O)oc2c(C)c3occ(-c4ccc(Cl)cc4)c3cc12`, 62.5%.
Consider `COc1ccc(N=C2S/C(=C\c3ccc(OCC(=O)O)cc3)C(=O)N2CCc2c[nH]c3ccccc23)cc1`, for which the inhibition came out at 54.2%.
For `N#Cc1c(-c2cccs2)nc(SCc2ccc(Cl)cc2)[nH]c1=O`, the inhibition turned out to be 72.9%.
As for `CCCCCC(=O)Cc1cc(O)cc2c1C(=O)Oc1cc(O)c(C(=O)O)c(CCCCC)c1O2`, the figure is 83.3%; as for `CC(C)CCOc1ccc(/C=C2\CCn3c2nc2cc(C(=O)O)ccc2c3=O)cc1`, 81.1%.
For `COc1cc(/C=C2\C(=N)N3N=C(S(C)(=O)=O)SC3=NC2=O)cc(OC)c1OCCOc1ccccc1C`, the inhibition was 72.6%.
As to `CC1(c2ccccc2)CC(C)(C)N2C(=O)/C(=C3\SC(=S)NC3=O)c3cccc1c32` (stereo not drawn), the inhibition is 72.9%.
For the compound `O=C(O)C1Nc2ccc(Br)cc2C2C=CCC12` (stereo not drawn), the inhibition is 58.1%.
Take `O=C1NC(=O)/C(=C/c2ccc(-c3cc(C(=O)O)ccc3Cl)o2)S1`: the inhibition stood at 50.8%.
As for `O=C(O)CSc1ncnc2c1sc1nc(-c3ccccc3)c3c(c12)CCC3`, the inhibition came to 78.9%.
On to `CCOc1cc(/C=C2\SC(=S)N(C(C(=O)O)c3ccccc3)C2=O)ccc1O` (stereo not drawn), for which the inhibition was found to be 69.4%.
`N#Cc1c(-c2ccccc2)nc(SCC(=O)N2c3ccccc3Sc3ccccc32)[nH]c1=O`: the inhibition was 84.4%.
As for `COc1ccc(OC)c(/C=C2\SC(=S)N(NS(=O)(=O)c3ccc(C)cc3)C2=O)c1`, the figure is 60.2%; as for `Cc1nn(CCc2nn[nH]n2)c2nc(-c3ccc(C4CCCCC4)cc3)cc(C(F)(F)F)c12`, 78.5%.
For `O=C(N/N=C/c1cc(Cl)cc([N+](=O)[O-])c1O)c1ccccc1NS(=O)(=O)c1cccs1`, the inhibition was found to be 69%.
On to `CC1=NN(c2ccccc2)C(=O)/C1=C/c1c(O)n(-c2ccc(F)c(Cl)c2)[nH]c1=O`, for which the inhibition turned out to be 79.8%.
On to `O=S(=O)(Nc1nc(-c2sccc2Cl)cs1)c1cc(Cl)ccc1Cl`, for which the inhibition was 76.7%.
